Source: the supplement of paper PMC10369915
This is one part of the list. No stated cut-off is given here; in the data, active = 3.2 or more and inactive = the rest. Only a few entries rise above the background.

These binders were tested against SHP2 C-SH2 domain E139D (assay: enrichment score (SH2-bound / input frequency) (ratio); bacterial display of known human phosphotyrosine sites (pTyr-Var adds point mutants) read by sequencing; higher = stronger binding; tyrosines were phosphorylated by kinases first). Details: peptide library: pTyr-Var.
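Further: displayed peptides selected on beads carrying the immobilized SH2 domain, with library peptides lacking any tyrosine serving as negative controls.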

Enrichment score, inactive:
DPHKIFEFVNS [IRF3_Y107_Y107F] 1.09
ITRDIYETDYY [INSR_Y1185_M1180I] 0.948
FETDFYQKGGK [INSR_Y1190_R1191Q_YF] 0.751
ASLLPYFPAIM [IPO4_Y518] 1.54
IMITGYLLLFR [INSR_Y87_D86G] 2.3
YQQLFYLLQIN [IQGAP2_Y890_T894I] 2.86
YCRIMYDIFPF [INTS13_Y67] 1.73
PESCFYKESWL [IQGAP2_Y630_L629F] 0.731
HTDDGYMPMSP [IRS1_Y612] 0.691
KKFVPYFDLFM [IPO5_Y530_E525K_YF] 2
YQLENCCNGGG [INS_Y108_Y108C] 1
DISEPYKVFRI [IRF8_Y107_YF] 0.656
IMITDYLPLFR [INSR_Y87_L89P] 1.63
YETDYYRKGGK [INSR_Y1190] 0.485
FPCSVYVPDEW [INSR_Y1011] 1.01
KSPGEYVNIEF [IRS1_Y896] 1.59
GEDLSYGDLPP [IRS1_Y151_V154L] 0.644
RIRRRYCQVLN [IQCF1_Y144] 0.273
YQQLFYLLQTN [IQGAP2_Y890] 2.82

The binders below were run against SHP2 C-SH2 domain wild-type in the same assay as above. Details: peptide library: pTyr-Var.

Enrichment score, inactive:
DPHKIFEFVNS [IRF3_Y107_Y107F] 0.736
ITRDIYETDYY [INSR_Y1185_M1180I] 0.718
FETDFYQKGGK [INSR_Y1190_R1191Q_YF] 0.454
ASLLPYFPAIM [IPO4_Y518] 1.2
IMITGYLLLFR [INSR_Y87_D86G] 2.71
YQQLFYLLQIN [IQGAP2_Y890_T894I] 2.71
YCRIMYDIFPF [INTS13_Y67] 2.12
PESCFYKESWL [IQGAP2_Y630_L629F] 1.04
HTDDGYMPMSP [IRS1_Y612] 0.456
KKFVPYFDLFM [IPO5_Y530_E525K_YF] 2.04
YQLENCCNGGG [INS_Y108_Y108C] 0.929
DISEPYKVFRI [IRF8_Y107_YF] 0.761
IMITDYLPLFR [INSR_Y87_L89P] 1.49
YETDYYRKGGK [INSR_Y1190] 0.567
FPCSVYVPDEW [INSR_Y1011] 1.19
KSPGEYVNIEF [IRS1_Y896] 1.54
GEDLSYGDLPP [IRS1_Y151_V154L] 0.604
RIRRRYCQVLN [IQCF1_Y144] 0.41
YQQLFYLLQTN [IQGAP2_Y890] 2.93

Each binder was assayed against SHP2 N-SH2 domain L43F in the same assay as above. Details: peptide library: pTyr-Var.

Enrichment score, inactive:
DPHKIFEFVNS [IRF3_Y107_Y107F] 0.893
ITRDIYETDYY [INSR_Y1185_M1180I] 0.797
FETDFYQKGGK [INSR_Y1190_R1191Q_YF] 0.641
ASLLPYFPAIM [IPO4_Y518] 1.44
IMITGYLLLFR [INSR_Y87_D86G] 1.91
YQQLFYLLQIN [IQGAP2_Y890_T894I] 2.91
YCRIMYDIFPF [INTS13_Y67] 1.56
PESCFYKESWL [IQGAP2_Y630_L629F] 0.95
HTDDGYMPMSP [IRS1_Y612] 0.544
KKFVPYFDLFM [IPO5_Y530_E525K_YF] 1.77
YQLENCCNGGG [INS_Y108_Y108C] 0.733
DISEPYKVFRI [IRF8_Y107_YF] 0.747
IMITDYLPLFR [INSR_Y87_L89P] 1.53
YETDYYRKGGK [INSR_Y1190] 0.45
FPCSVYVPDEW [INSR_Y1011] 1.32
GEDLSYGDLPP [IRS1_Y151_V154L] 0.534
RIRRRYCQVLN [IQCF1_Y144] 0.384
YQQLFYLLQTN [IQGAP2_Y890] 2.69

Enrichment score, active:
KSPGEYVNIEF [IRS1_Y896] 3.82

These binders were tested against SHP2 N-SH2 domain T42A in the same assay as above. Details: peptide library: pTyr-Var.

Enrichment score, inactive:
DPHKIFEFVNS [IRF3_Y107_Y107F] 0.807
ITRDIYETDYY [INSR_Y1185_M1180I] 0.636
FETDFYQKGGK [INSR_Y1190_R1191Q_YF] 0.618
ASLLPYFPAIM [IPO4_Y518] 1.27
IMITGYLLLFR [INSR_Y87_D86G] 2.14
YQQLFYLLQIN [IQGAP2_Y890_T894I] 2.64
YCRIMYDIFPF [INTS13_Y67] 1.75
PESCFYKESWL [IQGAP2_Y630_L629F] 1.18
HTDDGYMPMSP [IRS1_Y612] 0.506
KKFVPYFDLFM [IPO5_Y530_E525K_YF] 2.26
YQLENCCNGGG [INS_Y108_Y108C] 0.653
DISEPYKVFRI [IRF8_Y107_YF] 0.528
IMITDYLPLFR [INSR_Y87_L89P] 2.04
YETDYYRKGGK [INSR_Y1190] 0.516
FPCSVYVPDEW [INSR_Y1011] 1.17
GEDLSYGDLPP [IRS1_Y151_V154L] 0.549
RIRRRYCQVLN [IQCF1_Y144] 0.308
YQQLFYLLQTN [IQGAP2_Y890] 3.02

Enrichment score, active:
KSPGEYVNIEF [IRS1_Y896] 5.77

The binders below were run against SHP2 N-SH2 domain T52S in the same assay as above. Details: peptide library: pTyr-Var.

Enrichment score, active:
KSPGEYVNIEF [IRS1_Y896] 4.93

Enrichment score, inactive:
DPHKIFEFVNS [IRF3_Y107_Y107F] 0.957
ITRDIYETDYY [INSR_Y1185_M1180I] 0.729
FETDFYQKGGK [INSR_Y1190_R1191Q_YF] 0.619
ASLLPYFPAIM [IPO4_Y518] 1.48
IMITGYLLLFR [INSR_Y87_D86G] 2.35
YQQLFYLLQIN [IQGAP2_Y890_T894I] 2.7
YCRIMYDIFPF [INTS13_Y67] 1.6
PESCFYKESWL [IQGAP2_Y630_L629F] 0.794
HTDDGYMPMSP [IRS1_Y612] 0.614
KKFVPYFDLFM [IPO5_Y530_E525K_YF] 1.75
YQLENCCNGGG [INS_Y108_Y108C] 0.821
DISEPYKVFRI [IRF8_Y107_YF] 0.721
IMITDYLPLFR [INSR_Y87_L89P] 1.44
YETDYYRKGGK [INSR_Y1190] 0.555
FPCSVYVPDEW [INSR_Y1011] 1.26
GEDLSYGDLPP [IRS1_Y151_V154L] 0.748
RIRRRYCQVLN [IQCF1_Y144] 0.179
YQQLFYLLQTN [IQGAP2_Y890] 2.88

Each binder was assayed against SHP2 N-SH2 domain wild-type in the same assay as above. Details: peptide library: pTyr-Var.

Enrichment score, inactive:
DPHKIFEFVNS [IRF3_Y107_Y107F] 1.09
ITRDIYETDYY [INSR_Y1185_M1180I] 0.875
FETDFYQKGGK [INSR_Y1190_R1191Q_YF] 0.667
ASLLPYFPAIM [IPO4_Y518] 1.43
IMITGYLLLFR [INSR_Y87_D86G] 1.8
YQQLFYLLQIN [IQGAP2_Y890_T894I] 2.97
YCRIMYDIFPF [INTS13_Y67] 1.66
PESCFYKESWL [IQGAP2_Y630_L629F] 1.46
HTDDGYMPMSP [IRS1_Y612] 0.542
KKFVPYFDLFM [IPO5_Y530_E525K_YF] 1.85
YQLENCCNGGG [INS_Y108_Y108C] 0.925
DISEPYKVFRI [IRF8_Y107_YF] 0.71
IMITDYLPLFR [INSR_Y87_L89P] 1.52
YETDYYRKGGK [INSR_Y1190] 0.629
FPCSVYVPDEW [INSR_Y1011] 1.33
KSPGEYVNIEF [IRS1_Y896] 1.48
GEDLSYGDLPP [IRS1_Y151_V154L] 0.76
RIRRRYCQVLN [IQCF1_Y144] 0.253
YQQLFYLLQTN [IQGAP2_Y890] 2.66
